# According to PubChem BioAssay AID1963576 (National Center for Advancing Translational Sciences (NCATS), 2024):
# About 60 (0.1%) of roughly 46,000 compounds were called active. Another 3% or so got no clear call; they are omitted. Calls come from the whole dose curve; as a rule, active = well fitted inhibition curve with a large enough effect; inconclusive = small, poorly fitted or top-dose-only effect; inactive = no such curve, though single readings can be large or run the other way. The list shows a part of the results.
# Assay: Primary qHTS assay for Inhibitors of ovarian cancer metastasis using an organotypic tumor microenvironment (TME) model.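 For activity change, negative = inhibition: plate controls were DMSO wells for no effect and tomatine positive control wells for full effect.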 Note: nearly all actives have a fitted effect of over 65% in size.
# Details: SKOV3ip1-GFP adhesion/invasion on 3D omental model, fluorescence; series mostly up to 45.8 µM; activity change, negative = inhibition: at the top concentration
# Outline: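 Adhesion/invasion was scored as fixed GFP-labeled SKOV3ip1 cell counts (488/509 nm), normalized to DMSO and tomatine controls. Cancer cells in serum-free medium, with four compound doses (0.36-46 umol/L), sat 2 hr at RT then 16 hr at 37 C on a 48 hr fibroblast/mesothelial/ECM culture.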
Compound,"activity change, negative = inhibition",outcome
CCn1c2ccccc2c2cc(CN3CCN(Cc4ccc(Cl)cc4)CC3)ccc21,inactive: -7.1%,–
CCOC(=O)c1ccc(NC(=O)CC2C(=O)N(c3cccc(OC)c3)C(=O)N2Cc2cccnc2)cc1 (configuration not stated),inactive: 10.6%,–
CC(=O)c1ccc(NC(=O)C(C)n2nc(-c3ccccc3)ccc2=O)cc1 (configuration not stated),inactive: 24.6%,–
COc1cccc(-c2nnc(SCC(=O)N(C)c3ccccc3)o2)c1,–,inactive
CC(=O)Nc1cc(C(=O)NCc2ccc(F)cc2)ccc1S(=O)(=O)c1ccc(C)cc1,inactive: -19.1%,–
Cc1ccc2c(=O)cc(C(=O)Nc3ccc(S(=O)(=O)N4CCCCC4C)cc3)oc2c1C (configuration not stated),–,inactive
CCN(CC)CCCNC(=O)Cn1ncc2c3ccccc3n(Cc3ccccc3)c2c1=O,inactive: -8.95%,–
CCc1nc(Nc2ccc(F)c(Cl)c2)c2c3c(sc2n1)CCCC3,inactive: 3.58%,–
Cc1cc(C)n(C(C)CC(=O)Nc2cccc(C#N)c2)n1 (configuration not stated),inactive: 0.887%,–
COc1ccc(-c2c(C)nn3c(-c4ccccc4)cc(C)nc23)cc1OC,inactive: 8.69%,–
O=C(Cn1ncc2c3ccccc3n(Cc3cccc(Cl)c3)c2c1=O)NCCCc1ccccc1,inactive: -0.667%,–
Cc1cccc(C)c1NC(=O)Cn1cc(C(=O)c2ccco2)c2ccccc21,inactive: 6.06%,–
Cc1cc(O)c(C(c2ccccc2)N2CCN(c3ccccc3)CC2)c(=O)n1Cc1ccco1 (configuration not stated),inactive: -5.75%,–
Cc1ccc2oc(-c3ccc(Cl)cc3)c(O)c(=O)c2c1,inactive: 2.11%,–
CCOc1ccc(-c2nn(-c3ccc(F)cc3)c3c2cnc2ccc(F)cc23)cc1,–,inactive
CC1CCN(S(=O)(=O)c2ccc3c(ccn3CC(=O)NCc3ccccc3F)c2)CC1,inactive: -21.8%,–
COc1cccc(CNC(=O)c2ccc3c(c2)nc2n3CCOC2)c1OC,inactive: 17.5%,–
Cc1ccc(C)c(NC(=O)CN2CCN(C3CCCCC3)C(=O)C2=O)c1,–,inactive
Cc1cccc(-n2nnc(-c3nc(-c4ccccc4)no3)c2N)c1C,inactive: 2.51%,–
Cc1ccc(C(=O)Nc2nnc(S(=O)(=O)N(C)Cc3ccco3)s2)cc1,inactive: -7.78%,–
CCn1cc(C(=O)NCCc2ccc(OC)c(OC)c2)c(=O)c2cc(S(=O)(=O)N3CCOCC3)ccc21,inactive: -8.83%,–
Cc1cc(-c2ncc(CC(=O)Nc3ccc(-c4cnccn4)cn3)cc2C)ccn1,inactive: -0.502%,–
Cc1ccc(-c2noc(C(C)NC(=O)c3ccco3)n2)cc1 (configuration not stated),inactive: -5.74%,–
COc1ccc(S(=O)(=O)c2c(SC)nn(CC(=O)Nc3ccc(C)c(Cl)c3)c2N)cc1,inactive: 5.93%,–

Compound,"activity change, negative = inhibition",outcome
O=C(Nc1cccc(C(F)(F)F)c1)c1cc(-c2ccc(Cl)cc2)on1,inactive: 16.6%,–
CCc1nc2c(cnn2-c2ccc(C)cc2)c(=O)n1-c1ccc(C)cc1,–,inactive
Cc1cnc(C(=O)NCCc2ccc(S(=O)(=O)NC(=O)NC3CCCCC3)cc2)cn1,inactive: -12.4%,–
CCc1nn2c(=O)cc(COC(=O)c3cccc(NC(=O)c4ccccc4C)c3)nc2s1,inactive: 0.972%,–
COc1ccc2c(CNC3CCCC3)c(C(=O)O)n(Cc3ccccc3C)c2c1,inactive: 11.5%,–
CC(C)(C)C1CCc2nc(NC(=O)COc3ccccc3[N+](=O)[O-])sc2C1 (configuration not stated),inactive: 3.63%,–
COCCCNC(=O)CSc1nc2cc3c(cc2c(=O)n1CCCCCC(=O)NCCc1ccc(OC)c(OC)c1)OCO3,inactive: 6.39%,–
Cc1ccccc1NC(=O)CN1C(=O)C2(SCC(=O)N2c2ccc(F)cc2)c2ccccc21 (configuration not stated),–,inactive
O=C(Nc1cc(C(F)(F)F)ccc1Cl)c1noc2c1CCCCC2,inactive: -13.9%,–
Cc1cc(C)c2c(=O)cc(C(=O)Nc3sc4c(c3C#N)CCCC4)oc2c1,–,inactive
O=C(NCc1ccc(F)cc1)c1ccc2c(c1)N(Cc1c(F)cccc1Cl)C(=O)CS2,inactive: 29.4%,–
CC1=C(c2ccc(C)cc2)S(=O)(=O)N(Cc2ccc(C(=O)NCc3ccccc3)cc2)C1=O,inactive: 9.97%,–
COc1cccc(-n2ccn(CC(=O)Nc3ccccc3F)c(=O)c2=O)c1,inactive: 3.58%,–
O=C(Nc1ccc(F)c(F)c1)c1cc(S(=O)(=O)N2CCc3ccccc32)ccc1F,inactive: 2.37%,–
COc1ccc2c(c1)c(CC(=O)Nc1cccc(F)c1C)c(C)n2C(=O)c1ccc(Cl)cc1,inactive: 0.0208%,–
CCc1ccccc1NC(=O)Cn1cc(C(=O)c2ccc(Cl)cc2)c(=O)c2ccc(C)nc21,inactive: -6.82%,–
Cc1ccc(CNC(=O)CSCc2nc(-c3ccc(Cl)cc3)oc2C)cc1,–,inactive
COc1ccc(C2=C(C)C(N3CCC(C(=O)NCc4ccco4)CC3)=NS2(=O)=O)cc1,inactive: 8.44%,–
Cc1ccc(CNS(=O)(=O)c2cc(C(=O)Nc3ccc(C(C)C)cc3)ccc2F)cc1,inactive: -19.3%,–
Cc1ccccc1-c1nc2c3c(-c4ccccc4)c(-c4ccccc4)oc3ncn2n1,–,inactive
COc1ccc(-c2cc(C(=O)NCCc3ccc(Cl)cc3)[nH]n2)cc1,inactive: -7.45%,–
Cc1cccc(N2CCN(C(=O)COCc3cc(-c4ccc5c(c4)OCO5)on3)CC2)c1C,inactive: 16.6%,–
CCOc1ccc(NC(=O)N2CCC(CN3CCC(C)CC3)CC2)cc1,inactive: 7.07%,–
